Test results from the supplement of paper PMC11417369.
The list shows a part of the results.

The sequences below were run on PfSIP2 AP2 domain 1 (GST-tagged) (assay: gcPBM binding intensity (ln(normalized median fluorescence intensity)); higher = stronger DNA binding).
In short: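 The binding buffer was 1× PBS containing 1% milk, 0.2 mg/ml BSA, 0.5% salmon testes DNA and 0.03% Triton X-100. In it, GST-tagged P. falciparum DNA-binding domains expressed in E. coli were applied for 1 h to an Agilent 4 × 180k array of primer-extended double-stranded 36-bp intergenic genomic probes plus negative controls. Binding intensity, read with Alexa488 anti-GST antibody and a 488 nm scan, is the highest Masliner-normalised natural-log median intensity across replicate spots of either probe orientation.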

Sequence	gcPBM binding intensity (ln)
AAAATAAAAAGAAAAAGAAAAAAGGGGGGGTAGGGG [CACACA_negctrl_site1048]	7.86
CTTTAAGTTATATGAAGTACAATTTAAAAAAATGAA [XGTACX_site358]	6.98
ATACATTCAATGAAATGTACGTTTATTTACAGAAGA [XGTACX_site2999]	6.93
TAATGGTTATCACTAACATGCAGTAATATTATATAG [TGCATGCA_site176]	6.71
TTTTTTCTTTTTTTTTGTACATATAATATTTATGTT [XGTACX_site302]	6.92
AAAAGAAAAAAAAAAAAAAAAAAAATTAAAATATAA [CACACA_negctrl_site17]	6.58
ATATATATATGTATATGTACATATATATGGTAACTC [XGTACX_site681]	9.12
ATATAATATTTATATGCACACTTTTCTATATATAAG [CACACA_site6100]	7.7
TAAAATATTATTTATTTACACACCAATCTTCTTTTC [CACACA_site9320]	6.72
TCGTATTTAAAATGTAGTACATAATTTGAAAAATAA [XGTACX_site5832]	7.08
CTTAGGTTAAAAGTGTGTACATAAAAACATATATAA [XGTACX_site2213]	7.36
ATAAGAAAAAGACACACACACAAAAAAAAAAAAAAA [CACACA_site2828]	7.02
TAAATAAATTATTTTCGTACTTATTTATTTTAATTA [XGTACX_site283]	6.9
AAAAAAAAAAAACACACACACAAATACAAATGGTAA [CACACA_site1720]	7.11
AATACATATCAAAGCTGTACAAAGTAAATTTTACTT [XGTACX_site3525]	6.79
AAGTTATTGATATATACACACAAATATAAATAATAT [CACACA_site6695]	6.89
TTCAATAGGTATAATTGTACTTAATAATATATTGTT [XGTACX_site8363]	6.91
TTATGTTCTTTAAAACCACACACCCCCCAACCCCCC [CACACA_site8742]	10.1
TATATATGCATATACATACACACATAACACATACGT [CACACA_site3833]	7.26
AATGTTTTATTTTGAAGTACATTTAAGAATTTTTTA [XGTACX_site7814]	6.86
TATGAAATTATAATTACACACAGGAAAATAAAATGT [CACACA_site1517]	7.26
ATATAATAATAAGGCACACAAATTAAAATATAAAAA [CACACA_site3710]	7.02
CATTATGTCGTAAATACACACATACATATACATACA [CACACA_site8383]	7.02
TTTTGACCATATCTGTTGCACTTTTGTGCTATTCGA	8.31
AAGGATCACAGACAAACACACATATATATATATATA [CACACA_site4469]	9.55
